In patent publication US20260055169A1 (PARAGON THERAPEUTICS, published 2026):
Positions count from the first letter of the chain named. Names and notes keep the numbering of the source. Values belong to the binder of their own block, whether it stands above or below them.

Legend:
[1] = target: T1, Recombinant human serum albumin (human, UniProt P02768); experiment: SPR, Fc-VHH captured on anti-human Fc, human albumin as analyte, pH 6.0
T1 construct: Analyte in SPR, 0-500 nM

[2] = target: T2, Recombinant cynomolgus serum albumin (cynomolgus, UniProt A2V9Z4 25-608); experiment: SPR Biacore 8K, VHH-Fc captured by anti-human Fc, albumin injected, pH 6.0, 25 C
T2 construct: Analyte in SPR

[3] = target: T3, Recombinant human serum albumin (human, UniProt P02768); experiment: as above
T3 construct: Analyte in SPR

[4] = target: T2, Recombinant cynomolgus serum albumin; experiment: SPR Biacore 8K, VHH-Fc captured by anti-human Fc, albumin injected, pH 7.4, 25 C
T2 sequence (A2V9Z4 25-608 limits assumed): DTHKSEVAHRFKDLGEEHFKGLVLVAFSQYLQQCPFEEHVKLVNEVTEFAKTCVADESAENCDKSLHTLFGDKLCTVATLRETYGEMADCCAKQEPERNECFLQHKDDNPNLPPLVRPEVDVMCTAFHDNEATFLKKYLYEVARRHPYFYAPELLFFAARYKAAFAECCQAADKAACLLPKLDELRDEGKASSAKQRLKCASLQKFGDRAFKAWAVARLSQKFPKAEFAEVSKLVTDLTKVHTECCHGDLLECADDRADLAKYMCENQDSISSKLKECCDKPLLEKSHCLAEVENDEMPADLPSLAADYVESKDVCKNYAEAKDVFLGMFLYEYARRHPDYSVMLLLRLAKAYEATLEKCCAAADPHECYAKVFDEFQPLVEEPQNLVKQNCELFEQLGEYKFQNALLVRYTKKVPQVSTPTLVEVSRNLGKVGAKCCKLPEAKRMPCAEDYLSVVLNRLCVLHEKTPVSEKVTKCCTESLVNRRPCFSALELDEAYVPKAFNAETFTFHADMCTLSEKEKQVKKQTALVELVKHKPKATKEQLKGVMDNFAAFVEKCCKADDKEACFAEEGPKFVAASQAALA

[5] = target: T3, Recombinant human serum albumin; experiment: as above
[6] = target: T4, Recombinant mouse serum albumin (mouse, UniProt P07724 25-608); experiment: SPR, Fc fusion captured on anti-human Fc, mouse albumin as analyte, pH 6.0
T4 construct: Analyte in SPR, 0-500 nM
T4 sequence (P07724 25-608 limits assumed): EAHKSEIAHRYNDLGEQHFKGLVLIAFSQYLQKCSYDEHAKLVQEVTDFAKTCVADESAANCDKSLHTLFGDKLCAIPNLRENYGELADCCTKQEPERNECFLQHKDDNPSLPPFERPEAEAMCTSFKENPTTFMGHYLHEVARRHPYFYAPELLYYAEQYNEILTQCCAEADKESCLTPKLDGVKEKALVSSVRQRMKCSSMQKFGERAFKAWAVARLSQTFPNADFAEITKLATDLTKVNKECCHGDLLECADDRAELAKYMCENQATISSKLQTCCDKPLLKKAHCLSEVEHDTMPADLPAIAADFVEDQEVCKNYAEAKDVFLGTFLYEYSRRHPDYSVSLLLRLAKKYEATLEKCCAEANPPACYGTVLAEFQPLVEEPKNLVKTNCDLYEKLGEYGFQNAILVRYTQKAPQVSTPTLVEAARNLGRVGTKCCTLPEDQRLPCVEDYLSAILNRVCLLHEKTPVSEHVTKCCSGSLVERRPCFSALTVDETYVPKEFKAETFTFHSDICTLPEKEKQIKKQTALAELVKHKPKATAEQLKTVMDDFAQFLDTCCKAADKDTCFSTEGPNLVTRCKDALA

binding result [1]: no binding (tested: 500 nM)
B1: Fc-VHH 1-3 fusion (SEQ ID NO: 37) (Fc fusion)
chain: [letters of human IgG1 Fc left out]GGGSQVQLVESGGGLVQPGGSLRLSCAASGFTFGQFGMSWVRQAPAKGPERVSAISSSGSGTIYADSVKGRFTISRDNAKNTLYLQMNSLKPEDTAVYYCTIGSSTTPSGPGQGTQVTVSS

binding result [1]: no binding (tested: 500 nM)
B2: Fc-VHH 1-4 fusion (SEQ ID NO: 38) (Fc fusion)
chain: [letters of human IgG1 Fc left out]GGGSQVQLVESGGGLVQPGGSLRLSCAASGFTFGQFGMSWVRQAPAKGPERVSAISSGGSGTIYADSVKGRFTISRDNAKNTLYLQMNSLKPEDTAVYYCTIGSSTTPSGPGQGTQVTVSS

binding result [1]: no binding (tested: 500 nM)
B3: Fc-VHH 1-7 fusion (SEQ ID NO: 41) (Fc fusion)
chain: [letters of human IgG1 Fc left out]GGGSEVQLVESGGGLVQPGGSLRLSCAASGFTFGQFGMSWVRQAPGKGLEWVSAISSDGSGTIYADSVKGRFTISRDNSKNTLYLQMNSLRAEDTAVYYCTIGSSTTPSGWGQGTTVTVSS

binding result [1]: no binding (tested: 500 nM)
B4: Fc-VHH 1-9 fusion (SEQ ID NO: 43) (Fc fusion)
chain: [letters of human IgG1 Fc left out]GGGSEVQLVESGGGLVQPGGSLRLSCAASGFTFGQFGMSWFRQAPGKEREFVSAISSDGSGTIYADSVKGRFTISRDNSKNTLYLQMNSLRAEDTAVYYCTIGSSTTPSGWGQGTTVTVSS

Kd [6]: 265 nM | koff [6]: 0.0233 s⁻¹ | kon [6]: 87800 M⁻¹ s⁻¹
B8: VHH 15-Fc fusion (SEQ ID NO: 156) (Fc fusion)
chain: QVQLQESGGGLVQPGGSLTLSCAASGFTFGSFGMSWVRQAPGKGPEWVSAIDSSGADTRYADSVKGRFTISRDNAKKTLYLQMNSLKPEDTAVYYCTIGRSTSRGSQGTQVTVSSGGGGS[letters of human IgG1 Fc left out]
notes: Llama VHH-G4S-wild-type IgG1 Fc

Kd [6]: 163 nM | koff [6]: 0.0241 s⁻¹ | kon [6]: 148000 M⁻¹ s⁻¹
B12: VHH 11-Fc fusion (SEQ ID NO: 152) (Fc fusion)
chain: B8 chain with Q5V, T19R, S54G, D62E, S63T, A75L
notes: as for B8

Kd [6]: 199 nM | koff [6]: 0.0309 s⁻¹ | kon [6]: 155000 M⁻¹ s⁻¹
B13: VHH 20-Fc fusion (SEQ ID NO: 161) (Fc fusion)
chain: B8 chain with Q5V, T19R, S53G, S54G, D62E, R100G
notes: as for B8

Kd [6]: 160 nM | koff [6]: 0.0242 s⁻¹ | kon [6]: 151000 M⁻¹ s⁻¹
B16: VHH 17-Fc fusion (SEQ ID NO: 158) (Fc fusion)
chain: B8 chain with G16D, T19R, K43R, G44E, S54G, D62E, S85T
notes: as for B8

Further lines, the binder ahead of its results:

B5: VHH 1 - G4S - wild-type IgG1 Fc fusion (VHH-Fc fusion, SEQ ID NO: 5) (Fc fusion)
chain: QVQLVESGGGLVQPGGSLRLSCAASGFTFGQFGMSWVRQAPAKGPERVSAISSDGSGTIYADSVKGRFTISRDNAKNTLYLQMNSLKPEDTAVYYCTIGSSTTPSGPGQGTQVTVSSGGGGS[letters of human IgG1 Fc left out]
notes: also called VHH-1 Fc fusion
Kd [2]: 36.6 nM | koff [2]: 0.00447 s⁻¹ | kon [2]: 122000 M⁻¹ s⁻¹ | Kd [3]: 23.9 nM | koff [3]: 0.00481 s⁻¹ | kon [3]: 201000 M⁻¹ s⁻¹ | Kd [4]: 44.1 nM | Kd [5]: 44.7 nM

B6: VHH 6 - G4S - wild-type IgG1 Fc fusion (VHH-Fc fusion, SEQ ID NO: 147) (Fc fusion)
chain: B8 chain with Q5V, T19R, S54G, D62E, R100Q
Kd [2]: 26.7 nM | koff [2]: 0.00219 s⁻¹ | kon [2]: 82100 M⁻¹ s⁻¹ | Kd [3]: 11.8 nM | koff [3]: 0.00125 s⁻¹ | kon [3]: 106000 M⁻¹ s⁻¹ | Kd [4]: 53.9 nM | Kd [5]: 30.7 nM

B7: VHH 6-Fc fusion (SEQ ID NO: 147) (Fc fusion)
chain: B8 chain with Q5V, T19R, S54G, D62E, R100Q
notes: as for B8
Kd [6]: 9.44 nM | koff [6]: 0.00101 s⁻¹ | kon [6]: 107000 M⁻¹ s⁻¹

B9: VHH 2-Fc fusion (SEQ ID NO: 143) (Fc fusion)
chain: B8 chain with Q5V, T19R, S31R, S54G, D62E
notes: as for B8
Kd [6]: 143 nM | koff [6]: 0.0187 s⁻¹ | kon [6]: 131000 M⁻¹ s⁻¹

B10: VHH 11 - G4S - wild-type IgG1 Fc fusion (VHH-Fc fusion, SEQ ID NO: 152) (Fc fusion)
chain: B8 chain with Q5V, T19R, S54G, D62E, S63T, A75L
Kd [2]: 48.8 nM | koff [2]: 0.00678 s⁻¹ | kon [2]: 139000 M⁻¹ s⁻¹ | Kd [3]: 19.8 nM | koff [3]: 0.00293 s⁻¹ | kon [3]: 148000 M⁻¹ s⁻¹ | Kd [4]: 99 nM | Kd [5]: 53.6 nM

B11: VHH 3-Fc fusion (SEQ ID NO: 144) (Fc fusion)
chain: B8 chain with Q1E, Q5V, T19R, S54G, D62E, R100Q
notes: as for B8
Kd [6]: 10.6 nM | koff [6]: 0.00107 s⁻¹ | kon [6]: 101000 M⁻¹ s⁻¹

B14: VHH 7-Fc fusion (SEQ ID NO: 148) (Fc fusion)
chain: B8 chain with Q1E, Q5V, P14S, T19R, S53G, S54G, D62E, R100Q
notes: as for B8
Kd [6]: 453 nM | koff [6]: 0.0448 s⁻¹ | kon [6]: 99000 M⁻¹ s⁻¹

B15: VHH 10-Fc fusion (SEQ ID NO: 151) (Fc fusion)
chain: B8 chain with Q1E, Q5V, T19R, S54G, D62E, T102A
Kd [6]: 184 nM | koff [6]: 0.0276 s⁻¹ | kon [6]: 150000 M⁻¹ s⁻¹

B17: VHH 7 - G4S - wild-type IgG1 Fc fusion (VHH-Fc fusion, SEQ ID NO: 148) (Fc fusion)
chain: B8 chain with Q1E, Q5V, P14S, T19R, S53G, S54G, D62E, R100Q
Kd [2]: 33.7 nM | koff [2]: 0.00213 s⁻¹ | kon [2]: 63300 M⁻¹ s⁻¹ | Kd [3]: 17.8 nM | koff [3]: 0.00118 s⁻¹ | kon [3]: 66200 M⁻¹ s⁻¹ | Kd [4]: 45.1 nM | Kd [5]: 23.9 nM
